Data taken from patent US8877800B2, “Kappa-opiate agonists for the treatment of diarrhea-predominant irritable bowel syndrome” (Tioga Pharmaceuticals, Inc., priority 2007, dated 2014).

System: patients with IBS
Assay: Example 1: randomized, double-blind, placebo controlled 4-week on-demand asimadoline study in participants with IBS
Settings: IBS-C; on-demand 0.5 mg p.r.n. up to 1.0 mg q.i.d., 4 weeks

`CN(C(=O)C(c1ccccc1)c1ccccc1)[C@H](CN1CC[C@H](O)C1)c1ccccc1.Cl` [Asimadoline, N-[(1S)-2-[(3S)-3-hydroxypyrrolidin-1-yl]-1-phenylethyl]-N-methyl-2,2-diphenylacetamide, hydrochloride] was tested, and the “Δ mean # stools, treatment compared to baseline” value was −0.1 ± 0.1.
